From ChEMBL document CHEMBL4888484, “Replenishing the malaria drug discovery pipeline: Screening and hit evaluation of the MMV Hit Generation Library 1 (HGL1) against asexual blood stage Plasmodium falciparum ,using a nano luciferase reporter read-out” (2022)
The whole screen tested about 150,000 compounds, of which about 540 (0.36%) showed an effect of 50% or more. The list shows a part of the results.

The compounds below were run on Plasmodium falciparum (assay: Primary screen in NF54 nanoGlo assay, in single point, at 2uM, 72h; a lower Z score goes with more inhibition). Details: timepoint 72 hour.
Assay type: functional, Erythrocyte

Row | Compound | % Inhibition | Z score
1 | COc1cc(C)ccc1OCc1nc(C(=O)NC(C)C)cs1 | -6% | 1.12
2 | O=C(CCc1ccc(-c2ccccc2)o1)N1CCOCC1 | -6% | 1.05
3 | CN(C)c1ccc(CNc2nnc[nH]2)cc1F | -9% | 1.9
4 | Cc1nc(C(C)C)sc1[C@H](C)N(C)S(=O)(=O)C1CCS(=O)(=O)CC1 | 3% | -0.59
5 | Cc1cc(=O)cc(O)n1CCn1cnc2ccccc21 | -3% | 0.33
6 | CN1C(=O)[C@@]2(c3ccccc31)[C@@H](C(=O)NCc1ccc3c(c1)OCO3)C[C@H]1CCCN12 | -14% | 1.38
7 | O=C(NCC1CC1)C1(NCc2nc(-c3ccoc3)no2)CCCC1 | -4% | 0.43
8 | Cc1ccc(S(=O)(=O)N2CCN(C(=O)[C@@H]3CCCCO3)CC2)cc1 | -10% | 2.08
9 | Cn1nnc2c(C(C)(C)C)cc(C(C)(C)C)c-2n1 | -30% | 3.57
10 | C[C@]12C(=O)N(C3CCCCC3)CC(=O)N1CCc1c2[nH]c2ccccc12 | 1% | -0.17
11 | CCC#CCN1CCC[C@H](CNC(=O)c2cncnc2C)C1 | -12% | 1.48
12 | COc1ccccc1N1CCN(C(=O)C[C@@H]2CCNC[C@@H]2Cc2cc(C(C)(C)C)on2)CC1 | 28% | -3.19
13 | Cc1conc1CNC(=O)CCCNC(=O)OC(C)(C)C | 6% | -0.64
14 | Cc1cc(C(=O)NCC2CCC(C(=O)N(C)C)O2)co1 (stereo not drawn) | -3% | 0.43
15 | c1csc(CCN2CCC[C@H](Cn3cncn3)C2)c1 | 11% | -1.46
16 | CNc1ncc(C(=O)N2CCC[C@H](C(=O)c3cc(C)c(OC)c(C)c3)C2)cn1 | 4% | -0.72
17 | CCc1cnc(C)nc1N(C)C[C@H]1CCCCN1C | 8% | -0.96
18 | Cc1nnc(N2CCN(C(=O)C(C)C)CC2)c(C#N)c1C | -4% | 0.54
19 | CC(=O)Nc1cccnc1NC(=O)c1cccn1C1CC1 | -1% | 0.09
20 | CC(C)c1cc(NCCCOc2cccnc2)nc(N)n1 | -18% | 1.97
21 | COc1ccc(Cc2n[nH]c(CCc3cnn(C)c3)n2)cc1 | -9% | 1.71
22 | CCC1=C(c2ccc(C)cc2)S(=O)(=O)N=C1N1CCC(C(=O)NCCN2CCCC[C@@H]2C)CC1 | 53% | -6.49
23 | C[C@@H](C(=O)NCCOCCO)n1cc(Cl)cn1 | 5% | -0.66
24 | COC[C@H](C)NC(=O)c1ccc(C(F)(F)F)cc1 | 2% | -0.19
